Measured values as given in the supplement of paper PMC3334620.
The full ranking holds about 33,000 sequences; the median of “E-score (-0.5 to 0.5)” is about -0.021, and the highest 2% start at about 0.32. The list shows a part of the results.

Target: T1, Zap1 (UniProt P47043)
T1 sequence: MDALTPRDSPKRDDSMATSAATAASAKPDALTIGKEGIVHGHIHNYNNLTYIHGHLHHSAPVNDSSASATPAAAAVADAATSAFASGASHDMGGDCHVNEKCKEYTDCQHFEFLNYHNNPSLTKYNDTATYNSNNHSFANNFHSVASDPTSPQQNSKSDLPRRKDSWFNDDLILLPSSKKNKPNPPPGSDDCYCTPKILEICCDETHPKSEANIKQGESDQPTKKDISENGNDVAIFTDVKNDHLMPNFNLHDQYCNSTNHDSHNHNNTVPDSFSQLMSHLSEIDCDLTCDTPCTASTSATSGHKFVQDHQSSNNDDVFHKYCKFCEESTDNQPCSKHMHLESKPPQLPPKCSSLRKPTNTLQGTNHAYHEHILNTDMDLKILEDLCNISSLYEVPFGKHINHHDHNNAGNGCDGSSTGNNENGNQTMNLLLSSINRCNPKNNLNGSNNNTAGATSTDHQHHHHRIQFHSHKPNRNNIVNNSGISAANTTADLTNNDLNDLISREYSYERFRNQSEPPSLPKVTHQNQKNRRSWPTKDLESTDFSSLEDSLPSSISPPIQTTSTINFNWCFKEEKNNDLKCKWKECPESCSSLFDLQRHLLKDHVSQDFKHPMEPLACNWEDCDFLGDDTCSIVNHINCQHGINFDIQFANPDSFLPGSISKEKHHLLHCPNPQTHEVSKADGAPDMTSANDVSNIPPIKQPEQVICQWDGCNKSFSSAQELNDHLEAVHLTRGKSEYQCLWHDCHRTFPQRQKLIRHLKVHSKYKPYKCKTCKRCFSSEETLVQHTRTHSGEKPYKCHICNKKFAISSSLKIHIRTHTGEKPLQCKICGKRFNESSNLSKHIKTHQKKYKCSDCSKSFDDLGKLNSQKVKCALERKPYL
Assay: PBM E-score (8-mer binding enrichment) (E-score (-0.5 to 0.5)); higher = stronger / more preferred TF binding; most listed sequences are background and not binding sites
Conditions: protein concentration: 200 nM; construct: GST-full length
How it was run: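 For each ungapped eight-base word taken together with its reverse complement, the Universal PBM Analysis Suite assigned an E-score. Binding data came from GST-tagged yeast transcription factors, applied at about 100-200 nM, on universal all-10-mer Agilent arrays made double-stranded by primer extension. Fluorescent anti-GST marked bound protein, and scans were normalised with masliner.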

Going from AGATTTTA to GGAGGACC, the “PBM E-score” value falls from -0.0311 to -0.202.

Compared with TATTGGGA, CCCGATTA is higher in “PBM E-score” value: 0.123 for the first, 0.186 for the second.

Going from CACCGATG to AGGACTGC, the “PBM E-score” value falls from -0.1 to -0.307.

Going from AGACTCAG to GAATTCAC, the “PBM E-score” value rises from -0.0765 to 0.0638.

Going from GTATCCAA to CCATGTGA, the “PBM E-score” value falls from 0.0926 to -0.0922.

Going from CACCGGAA to TCCAATCA, the “PBM E-score” value falls from 0.0491 to -0.058.

First: CTCGTTGA
Second: AAATTAGA
The “PBM E-score” value of the first is lower: -0.0558 for the first, 0.114 for the second.

First: GAAAGTCC
Second: ATTGACAG
The “PBM E-score” value of the first is higher: 0.00246 for the first, -0.00112 for the second.

First: ACCTTTGA
Second: ATCCTCAA
The “PBM E-score” value of the first is higher: 0.247 for the first, 0.118 for the second.

First: ACCAGCGA
Second: CGGGTAAC
The “PBM E-score” value of the first is lower: 0.0676 for the first, 0.351 for the second.

Compared with ACGTCATG, ATTACGCG is higher in “PBM E-score” value: -0.101 for the first, 0.0287 for the second.

Going from GCAATCGA to CAGCCGCA, the “PBM E-score” value falls from -0.181 to -0.191.

Compared with AGATAAAA, AATTTCGT is lower in “PBM E-score” value: 0.194 for the first, 0.0233 for the second.

First: AGTAACGA
Second: AGGAACTC
The “PBM E-score” value of the first is higher: 0.0604 for the first, -0.128 for the second.

Compared with GACACATA, AAGCGACA is lower in “PBM E-score” value: -0.0235 for the first, -0.236 for the second.

Compared with CGCTTGAG, AAGGTAGT is higher in “PBM E-score” value: -0.189 for the first, 0.373 for the second.

Compared with AACGCAGC, TCGCTAAA is higher in “PBM E-score” value: -0.0978 for the first, 0.117 for the second.

Going from AGGTCCAT to CACTCACA, the “PBM E-score” value rises from 0.016 to 0.0429.

Compared with ACTGTTCA, CGATATCA is higher in “PBM E-score” value: -0.167 for the first, -0.0414 for the second.

Compared with CACCGTCC, AATCGCCG is higher in “PBM E-score” value: -0.206 for the first, -0.171 for the second.

Going from GCCGGTGA to CCGACACA, the “PBM E-score” value falls from 0.0983 to -0.0424.

First: AGGCCGCA
Second: ATTATATA
The “PBM E-score” value of the first is lower: -0.189 for the first, 0.207 for the second.

Compared with GGACTCCA, AGAAAACG is higher in “PBM E-score” value: -0.22 for the first, -0.0564 for the second.

First: CCCCATGA
Second: ACCATCCA
The “PBM E-score” value of the first is higher: 0.222 for the first, -0.112 for the second.

Compared with CCATCAAG, CGTCCGGA is lower in “PBM E-score” value: -0.00784 for the first, -0.236 for the second.

Compared with ACGTCTAT, ATTAAGCG is higher in “PBM E-score” value: -0.101 for the first, -0.0207 for the second.

First: CCTGGGCA
Second: CACGTATA
The “PBM E-score” value of the first is lower: -0.264 for the first, -0.134 for the second.

First: TAACCTCA
Second: GCGGTGAA
The “PBM E-score” value of the first is higher: 0.418 for the first, -0.167 for the second.

First: CATCGGAC
Second: AAATCTGA
The “PBM E-score” value of the first is lower: -0.0899 for the first, 0.0458 for the second.

Going from AGCTATGA to AGCGTTCA, the “PBM E-score” value falls from -0.186 to -0.326.

Going from GGCAAACC to CATACCTC, the “PBM E-score” value rises from 0.0541 to 0.207.

Compared with ACTCATCC, AAACAGCC is higher in “PBM E-score” value: -0.0917 for the first, -0.036 for the second.

Compared with GCTACGAA, ATGATTGG is lower in “PBM E-score” value: -0.00238 for the first, -0.0726 for the second.

Compared with GCATGTAA, AGCCTGAC is lower in “PBM E-score” value: 0.0029 for the first, -0.229 for the second.

First: ACCTCTCT
Second: ATCAGGCA
The “PBM E-score” value of the first is higher: 0.0304 for the first, -0.143 for the second.

First: AACGCTCC
Second: GATACCCA
The “PBM E-score” value of the first is lower: -0.218 for the first, 0.184 for the second.

Going from GACCCACC to AAAGTGAT, the “PBM E-score” value falls from 0.245 to 0.0131.

First: CAATCTGG
Second: TAGATCAA
The “PBM E-score” value of the first is lower: -0.0575 for the first, 0.0091 for the second.

First: CACATTAA
Second: GCACGATA
The “PBM E-score” value of the first is lower: -0.095 for the first, 0.0752 for the second.

Compared with AAAGCGTA, ACTAAAGC is higher in “PBM E-score” value: -0.194 for the first, -0.00309 for the second.

Going from ACTCTCAG to ACCCTGCT, the “PBM E-score” value rises from -0.135 to 0.277.

First: CGTCGACA
Second: GACAAGCC
The “PBM E-score” value of the first is higher: 0.0241 for the first, -0.134 for the second.

First: GGAATTAA
Second: GGTCAGAA
The “PBM E-score” value of the first is lower: 0.0623 for the first, 0.181 for the second.

Going from CCGGAAAC to CATACAAG, the “PBM E-score” value rises from -0.0386 to 0.00754.

First: CTCCGAAC
Second: ATGTGTTG
The “PBM E-score” value of the first is lower: -0.196 for the first, 0.164 for the second.

First: CCATGAGC
Second: AGGCTTGG
The “PBM E-score” value of the first is lower: -0.197 for the first, -0.185 for the second.

Going from AACCCGCA to GAGTCGAC, the “PBM E-score” value falls from 0.314 to -0.158.

Going from ATAAATCG to AGAAAGTC, the “PBM E-score” value rises from -0.0422 to -0.00983.

Compared with ACATAGTC, GGTTGCTA is higher in “PBM E-score” value: -0.102 for the first, 0.102 for the second.

Compared with ACCTGTGC, GTCTTCGA is lower in “PBM E-score” value: 0.154 for the first, -0.069 for the second.

First: CGAGTGAG
Second: TCTCCAGA
The “PBM E-score” value of the first is higher: -0.0546 for the first, -0.0829 for the second.

First: AAGAGTGA
Second: GCGTCATA
The “PBM E-score” value of the first is lower: 0.0335 for the first, 0.13 for the second.

Compared with AGAACACT, CTACCAAA is higher in “PBM E-score” value: -0.0722 for the first, 0.185 for the second.

Compared with GACTGGGA, GACAGGGC is lower in “PBM E-score” value: -0.0785 for the first, -0.0908 for the second.

Compared with ATAGCGAG, CTCCCAAC is higher in “PBM E-score” value: -0.152 for the first, -0.00146 for the second.

Going from CTCGTCGC to AGGTCAAA, the “PBM E-score” value rises from -0.286 to 0.159.

Going from ACTCAGCA to AGAGGCCA, the “PBM E-score” value rises from -0.203 to 0.0111.

Going from GACTCCTC to AGTGCGAG, the “PBM E-score” value falls from -0.192 to -0.201.

Going from CCGGGATC to TCGTCTAA, the “PBM E-score” value rises from 0.0554 to 0.0796.

Going from TGTCCCAA to AGCCCGAT, the “PBM E-score” value falls from 0.129 to -0.149.

First: ATCGTGGG
Second: CGTATCTC
The “PBM E-score” value of the first is higher: 0.0813 for the first, -0.124 for the second.

First: ATAGTCTG
Second: AGCGGTAA
The “PBM E-score” value of the first is lower: -0.0831 for the first, 0.167 for the second.

Compared with ATAGGCAC, ACTATACG is higher in “PBM E-score” value: -0.164 for the first, -0.0651 for the second.

First: AGTTAGCA
Second: ACCAGAGG
The “PBM E-score” value of the first is lower: -0.0471 for the first, 0.0682 for the second.

First: ACAATAGG
Second: AATAAAGA
The “PBM E-score” value of the first is lower: -0.0709 for the first, 0.018 for the second.

First: AATGCATA
Second: CACAGCCC
The “PBM E-score” value of the first is higher: 0.0278 for the first, -0.199 for the second.

Going from CAAACCGA to GTGAAGGA, the “PBM E-score” value falls from 0.0256 to -0.0994.

First: ATGAACAC
Second: AAAAATTT
The “PBM E-score” value of the first is higher: 0.178 for the first, 0.123 for the second.

Going from GCAAAGAA to ACGAAAAT, the “PBM E-score” value falls from 0.199 to 0.143.

First: AACAGGGG
Second: GCTTCGCA
The “PBM E-score” value of the first is higher: 0.0931 for the first, -0.225 for the second.

First: ATACGATG
Second: AGGGCAAG
The “PBM E-score” value of the first is higher: -0.0413 for the first, -0.086 for the second.

Going from GAGCGAGC to ACGTATGG, the “PBM E-score” value falls from 0.0767 to 0.0654.

Compared with ACTGTCTA, ACTTCAAG is higher in “PBM E-score” value: -0.139 for the first, 0.00926 for the second.

Compared with ACCGTCTC, CCGTTGAC is lower in “PBM E-score” value: 0.105 for the first, -0.131 for the second.

First: AAAGATCA
Second: ACCGACCA
The “PBM E-score” value of the first is lower: 0.12 for the first, 0.175 for the second.

First: ATCAAGGA
Second: ACACCTAC
The “PBM E-score” value of the first is lower: 0.0875 for the first, 0.105 for the second.

Going from CCTTTCCC to ATGTAAAA, the “PBM E-score” value rises from -0.154 to -0.0176.

First: ACGATTGG
Second: CCATCTCG
The “PBM E-score” value of the first is lower: -0.106 for the first, -0.102 for the second.

Compared with CTGGTGTA, AGCGGTTA is higher in “PBM E-score” value: -0.127 for the first, 0.405 for the second.

First: AGGGAGCG
Second: ATGCCTTC
The “PBM E-score” value of the first is higher: -0.11 for the first, -0.34 for the second.

Compared with CATACCGG, ATATTCAT is higher in “PBM E-score” value: -0.0293 for the first, 0.07 for the second.

Going from AAAATCAG to CAAGGTAA, the “PBM E-score” value rises from 0.0163 to 0.191.

Going from CTTATCAA to CTCTTATC, the “PBM E-score” value falls from 0.0516 to -0.0224.

Going from ATGGATTG to GCTCTACA, the “PBM E-score” value rises from -0.0434 to -0.00163.

Going from AGTACTAC to AGAGAAGC, the “PBM E-score” value falls from 0.219 to -0.234.

First: GGCTGGCA
Second: AACCATCA
The “PBM E-score” value of the first is lower: -0.361 for the first, 0.199 for the second.
